Source: PubChem BioAssay AID1745853 (National Center for Advancing Translational Sciences (NCATS), 2022)
“And” between values parts separate entries of the source, which are not always exact repeats. Equal values may be shown once. Some of the results follow. These are further read-outs of the screen, such as a control signal, another cell line or another target. No call is given for them. Numbered stars: 1 amine (or outer) side, 2 acyl side, 3 side chain; on linkers, the order of the positions; unused ones are H or OH. Bridge positions count the residues as written; N and C are the ends. Square brackets hold non-standard residues; d marks the D form. Peptide text beside a SMILES is read from it. * marks the point of attachment. ξ: configuration not given here. ξhTyr(3S-OH,4S-OH,3'-OSO3H) = NC(C(=O)O)[C@H](O)[C@@H](O)c1ccc(O)c(OS(=O)(=O)O)c1; Orn(4R-OH,5R-OH) = O=C([C@H](C[C@@H](O)[C@@H](O)N[*:3])N[*:1])[*:2]; X6 = CCCCCOc1ccc(-c2cc(-c3ccc(C(=O)*)cc3)no2)cc1; X7 = C[C@H]1CN([*:1])C(C(=O)[*:2])[C@H]1O; ξGln(3R-OH) = NC(=O)C[C@@H](O)C(N)C(=O)O; ξPro(4R-OH) = O=C(O)C1C[C@@H](O)CN1; ξThr(3R) = C[C@@H](O)C(N)C(=O)O

Key:
Assay in all cases: Primary Screen for Target Class Profiling of Small Molecule Inhibitors of Methyltransferases
[1] = target: Glycine N-methyltransferase (Homo sapiens) (UniProt Q14749); details: purified enzyme, MTase-Glo SAH luminescence; measured here: GNMT inhibition; at 40 µM; stronger effect = lower value
Outline: (§1)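 Each enzyme was assayed with SAM and its substrate. SAH formation detected by MTase-Glo luminescence; single-point 40 uM screen[…].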

[2] = target: Guanidinoacetate N-methyltransferase (Homo sapiens) (UniProt Q14353); details: purified enzyme, MTase-Glo SAH luminescence; measured here: GAMT inhibition; at 40 µM; stronger effect = lower value
Outline: as §1

[3] = target: Histamine N-methyltransferase (Homo sapiens) (UniProt P50135); details: purified enzyme, MTase-Glo SAH luminescence; measured here: HNMT inhibition; at 40 µM; stronger effect = lower value
Outline: as §1

[4] = target: Nicotinamide N-methyltransferase (Homo sapiens) (UniProt P40261); details: purified enzyme, MTase-Glo SAH luminescence; measured here: NNMT inhibition; at 40 µM; stronger effect = lower value
Outline: as §1

[5] = target: Phenylethanolamine N-methyltransferase (Homo sapiens) (UniProt P11086); details: purified enzyme, MTase-Glo SAH luminescence; measured here: PNMT inhibition; at 40 µM; stronger effect = lower value
Outline: as §1
% is scaled to controls: 0 for no effect and ±100 for the full control effect.

Compound	activity change, negative = inhibition [1]	activity change, negative = inhibition [2]	activity change, negative = inhibition [3]	activity change, negative = inhibition [4]	activity change, negative = inhibition [5]
CCOc1ccc(CN2C(=O)c3cc4sccc4n3CC2(C)C(=O)NC2CCCC(C)C2C)cc1 (stereo not given)	-2.89%	1.33%	-1.2%	-1.61%	1.12%
O=C(Cn1ccc2cc(S(=O)(=O)N3CCCCC3)ccc21)NCc1ccc(Cl)cc1	-4.07%	4.44%	-0.638%	-5.32%	-2.75%
C[C@@H]1O[C@@H](O[C@H]2[C@@H]3C=CO[C@@H](O[C@@H]4O[C@H](CO)[C@@H](O)[C@H](O)[C@H]4O)[C@@H]3[C@@]3(CO)O[C@@H]23)[C@H](O)[C@H](O)[C@H]1OC(=O)/C=C/c1ccc(O)cc1	-1.99%	-3.73%	7.22%	-16.7%	-13.1%
CCc1ccc(-c2cc3n(n2)CC(C)(C(=O)NC2CCCCC2)N(Cc2ccccn2)C3=O)cc1 (stereo not given)	-7.11%	3.98%	-2.72%	-10.7%	-4.28%
COC(=O)c1cccc(NC(=O)N2Cc3c(sc4c3CCCC4)-n3cccc3C2c2ccccc2)c1 (stereo not given)	-1.83%	3.53%	-1.63%	-3.7%	0.626%
Cc1ccccc1N1C(=O)c2ccc(-c3ccco3)n2CC1(C)C(=O)NC1CCCC1 (stereo not given)	-0.766%	1.14%	-0.823%	-0.586%	-4.94%
O=C1CCN(C(=O)c2ccsc2)CCCC(C(=O)N2CCN(c3ccccn3)CC2)CCN1 (stereo not given)	-2.03%	2.24%	0.914%	0.088%	-1.14%
CC1C(=O)OCC2=CC[N+]3([O-])CCC(OC(=O)C(C)(O)C1(C)O)C23 (stereo not given)	0.02%	-2.27%	8.14%	-13.6%	1.97%
NS(=O)(=O)NCCNc1nonc1C(=Nc1ccc(F)c(Br)c1)NO	1.48% and 3.66%	6.71% and 7.86%	8.61% and 4.12%	-3.75% and -10.2%	7.69% and 0.544%
O=C([C@@H]1CCCN1C(=O)Cn1ccc2ccccc2c1=O)N1CCOCC1	-10.1%	-9.67%	-3.87%	-11.8%	-11.6%
Nc1ncnc2c1ncn2[C@@H]1O[C@H](COP(=O)(O)OP(=O)(O)OP(=O)(O)OP(=O)(O)OC[C@@H]2O[C@H](n3cnc4c(N)ncnc43)[C@@H](O)[C@H]2O)[C@@H](O)[C@H]1O	–	–	385%	–	461%
CCc1ccc(NC(=O)N2CCn3c(C)ccc3C2CC)cc1 (stereo not given)	-11.3%	-0.819%	-9.33%	-8.01%	-8.8%
OCc1nnc(C2CC(Nc3ncnc4ccccc34)C2)n1C1CC1 (stereo not given)	-7.31%	-5.66%	-1.06%	-18.8%	7.31%
Cc1ncc(C(=O)N2CCC3(CC(=O)NC3=O)C2)c(-c2ccccc2)n1 (stereo not given)	0.219%	2.66%	3.41%	1.34%	0.553%
COc1cc2c(cc1O)C1(Cc3ccc4c(c3C1O)OCO4)[N+](C)([O-])CC2 (stereo not given)	-5.91%	2.17%	1.57%	-14%	1.91%
CN(C)CCC[C@@]1(c2ccc(F)cc2)OCc2cc(C#N)ccc21	–	-4.79%	–	-16.3%	-12%
CN1CCCCCC(O)c2cc(C(=O)N3CCN(c4ccc(F)cc4)CC3)ccc21 (stereo not given)	-8.7%	-12.5%	-10.9%	-23.1%	-10.1%
CN1Cc2ccc(C(=O)Nc3ccc4cn[nH]c4c3)cc2OCC1=O	-13.5%	-1.27%	-9.59%	-6.84%	-10.6%
N[S+](=O)([O-])c1ccc2c(c1)OCCN(Cc1ccccc1Cl)C2	-1.9%	-0.43%	0.146%	-21.7%	0.668%
CC(O)/C=C/C1OC(=O)CC1Nc1ccc(C(=O)O)cc1 (stereo not given)	0%	5.71%	10.9%	-4.86%	-0.08%
COC(=O)C[C@H]1C(C)(C)[C@H](OC(C)=O)C2CC3=C4CC(=O)O[C@@H](c5ccoc5)[C@]4(C)CCC3[C@@]1(C)C2=O (stereo not given in full)	0.933%	-1.85%	6.02%	-14.9%	-8.64%
CC(C)N(Cc1cccc(N2CCN(S(=O)(=O)c3c(Cl)cccc3Cl)CC2)c1F)S(C)(=O)=O	-2.45%	-3.89%	-2.27%	-4.6%	-4.01%
Cc1noc(C)c1-c1cnc(Nc2ccncc2)c2c1CCO2	-13.4%	-14.3%	-67.6%	-30.7%	-15.8%
COc1ccc(OC)c(CNC(=O)c2cc3n(n2)CC(C)(C(=O)NCc2ccccc2)N(C)C3=O)c1 (stereo not given)	3.4%	4.12%	5.35%	2%	4.03%
CCCCCOc1ccc(-c2cc(-c3ccc(C(=O)N[C@H]4C[C@@H](O)[C@@H](O)NC(=O)C5[C@@H](O)[C@@H](C)CN5C(=O)C([C@H](O)CC(N)=O)NC(=O)C([C@H](O)[C@@H](O)c5ccc(O)c(OS(=O)(=O)O)c5)NC(=O)C5C[C@@H](O)CN5C(=O)C([C@@H](C)O)NC4=O)cc3)no2)cc1 (stereo partly drawn) (X6-[Orn(4R-OH,5R-OH)][ξThr(3R)][ξPro(4R-OH)][ξhTyr(3S-OH,4S-OH,3'-OSO3H)][ξGln(3R-OH)][X7]; lactam 1-C)	2.55%	19.6%	5.94%	-8.43%	3.27%
COC(=O)C1=C(C)NC(C)=C(C(=O)OC)C1c1cccc(NC(=O)NCCCN2CCC(c3cccc(OC)c3)CC2)c1	-13.9% and -19.6%	5.11% and 6.37%	-38.5% and -50.8%	-15.8% and -34.8%	4.78% and 2.43%
CCCn1c(=O)c2ccc(C(=O)NCC(C)C)cc2n2c(SCC(=O)Nc3cccc(C)c3)nnc12	2.49%	0%	3.52%	-2.34%	1.7%
O=C(O)CCNc1cc(N2CCc3ccccc3CC2)nc(-c2ccccn2)n1	-2.06% and -5.17%	-4.94% and -12.7%	0.664% and -4.07%	-18.1% and -19.6%	-4.9% and -6.73%
